Laboratory results taken from PubChem BioAssay AID1645882 (National Center for Advancing Translational Sciences (NCATS), 2021).
Hit rate of the full screen: of about 16,000 compounds, about 120 (0.75%) were called active. Inconclusive results (about 4%) are left out. Calls follow the shape of the dose curve; as a rule, active = well fitted inhibition curve with a large enough effect; inconclusive = small, poorly fitted or top-dose-only effect; inactive = no such curve, though single readings can be large or run the other way. Some of the results follow.

Biological target: Rap guanine nucleotide exchange factor 3 (Homo sapiens) (UniProt O95398)
Sequence of UniProt O95398 (O95398 whole entry, looked up): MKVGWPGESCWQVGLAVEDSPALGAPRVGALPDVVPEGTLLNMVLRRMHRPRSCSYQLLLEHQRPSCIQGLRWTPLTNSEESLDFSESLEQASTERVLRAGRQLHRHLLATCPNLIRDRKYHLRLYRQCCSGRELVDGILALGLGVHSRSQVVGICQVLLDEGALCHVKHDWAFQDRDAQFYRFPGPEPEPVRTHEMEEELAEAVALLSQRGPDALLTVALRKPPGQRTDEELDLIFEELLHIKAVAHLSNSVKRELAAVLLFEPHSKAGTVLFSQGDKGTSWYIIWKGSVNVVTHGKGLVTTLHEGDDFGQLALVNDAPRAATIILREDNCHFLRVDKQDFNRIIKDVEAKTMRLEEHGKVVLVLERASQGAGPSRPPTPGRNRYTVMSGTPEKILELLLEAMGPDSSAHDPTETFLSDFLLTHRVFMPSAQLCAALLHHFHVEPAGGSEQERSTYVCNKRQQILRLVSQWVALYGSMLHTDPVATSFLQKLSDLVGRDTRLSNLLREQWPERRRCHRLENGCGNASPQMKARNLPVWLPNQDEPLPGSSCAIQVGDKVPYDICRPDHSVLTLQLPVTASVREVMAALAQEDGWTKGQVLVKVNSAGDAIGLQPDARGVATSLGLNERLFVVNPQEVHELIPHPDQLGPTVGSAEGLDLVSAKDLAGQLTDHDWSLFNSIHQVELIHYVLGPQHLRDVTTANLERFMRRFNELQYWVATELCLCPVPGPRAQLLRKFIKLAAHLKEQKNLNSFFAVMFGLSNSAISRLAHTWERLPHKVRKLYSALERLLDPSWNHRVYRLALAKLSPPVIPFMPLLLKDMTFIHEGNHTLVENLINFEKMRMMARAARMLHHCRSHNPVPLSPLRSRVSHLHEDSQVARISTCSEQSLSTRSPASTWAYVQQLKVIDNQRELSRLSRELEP
Experiment: Validation qHTS for antagonist of cAMP-regulated guanine nucleotide exchange factor 3 (EPAC1);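 also: plate controls were DMSO for no effect and ATA control for full effect; nearly all actives have a fitted effect of over 75% in size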
Settings: EPAC1 Rap1B-BODIPY-GDP exchange, fluorescence; series mostly up to 150 µM; activity change, negative = inhibition: at the top concentration
Procedure, shortened: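 Nucleotide exchange followed as fluorescence loss when BODIPY-GDP leaves Rap1B (480 nm excitation, 540 nm emission), read at 5 min intervals over 30 min. Reaction: 100 nM EPAC1, 250 nM RAP1B-BODIPY-GDP, 50 uM GDP; ATA and DMSO define normalization.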

| Compound | activity change, negative = inhibition |
| --- | --- |
| NCCc1c[nH]c2ccc(C(N)=O)cc12 | inactive |
| COP(=S)(OC)Oc1cc(Cl)c(Cl)cc1Cl | inactive |
| COc1cc2occc2c2oc(=O)ccc12 | inactive |
| C[C@@]12CCC3C(CCC4=CC(=O)CC[C@]43C)C1CCC2O (stereo partly specified) | inactive: -9.11% |
| CC1=C2C3OC(=O)C(C)C3CC[C@@]2(C)C=CC1=O (stereo partly specified) | inactive: 17.7% |
| Oc1ccc2c3c1O[C@H]1c4oc5ccccc5c4C[C@]4(O)[C@H](C2)N(CC2CC2)CC[C@@]314 | inactive: -3.94% |
| CN1C(=O)C(O)N=C(c2ccccc2)c2cc(Cl)ccc21 (stereo unspecified) | inactive: 1.83% |
| O=S(=O)(O)C(F)(F)C(F)(F)C(F)(F)C(F)(F)F | inactive: 30.7% [at 320 µM] |
| O=C(NC1CCCCC1)[C@@H]1CC=C[C@@H]2CCN(Cc3ccccc3)C(=O)[C@@H]21 | inactive: 0.643% |
| Cc1ccc(C(=O)CN2CCOCC2)cc1 | inactive: 19.5% |
| COc1ccc(C2Oc3c(I)c(OC)cc(OC)c3CC2O)cc1OC (stereo unspecified) | inactive: -22.1% |
| CCOC(=O)[C@]12Cc3cc(OC)c(OC)cc3[C@H]1N(Cc1ccccc1)C(=O)c1ccccc12 | inactive: 4.48% |
| CCCCCCCCC(=O)NCc1ccc(O)c(OC)c1 | inactive |
| C=C1[C@@H](O)C2C=CC[C@H](C)C(=O)[C@@](C)(O)C=C[C@@H](OC(C)=O)[C@@]23C(=O)N[C@H](Cc2ccccc2)[C@@H]3[C@@H]1C (stereo partly specified) | inactive: 5.38% |
| CN[C@@H](Cc1c[nH]c2ccccc12)C(=O)O | inactive: 11.7% |
| CCOP(=O)(NC(C)C)Oc1ccc(SC)c(C)c1 (stereo unspecified) | inactive: 19% [at 320 µM] |
| CC1OC(C)OC(C)O1 (stereo unspecified) | inactive |
| S=C(SSC(=S)N1CCCCC1)N1CCCCC1 | inactive: -7.93% |
| CCCCCCCCCC[N+](C)(C)CCCCCCCCCC | inactive: -7.1% |
| Nc1ccc([As](=O)(O)O)cc1 | inactive: 6.51% |
| C[C@]12CC[C@H]3[C@@H](CCC4=C(O)C(=O)CC[C@@H]43)[C@@H]1CC[C@@H]2OC(=O)CCC1CCCC1 | inactive: 15.7% |
| COc1ccc(/C=C/c2cc(O)cc(O)c2)cc1 | inactive: 7.47% |
| O[C@H]1CCCC[C@H]1N1CCC(c2ccccc2)CC1 | inactive: 3.47% |
| O=c1ccc2[nH]cc(C3=CCNCC3)c2[nH]1 | inactive: 6.78% |
| C=CCN1CC[C@]23CCCC[C@H]2[C@H]1Cc1ccc(O)cc13 | inactive: 22.8% |
| c1ccc(N2CC[C@@]3(CCCNC3)C2)cc1 | inactive: 13.5% |

| Compound | activity change, negative = inhibition |
| --- | --- |
| FC(F)(F)c1cccc(C2=CCN(CCc3ccc4ccccc4c3)CC2)c1 | inactive: 11.3% |
| CC(C)c1ccc2c(c1O)CCC1C3=C(CC[C@]21C)C(=O)OC3 (stereo partly specified) | inactive: -6.12% |
| ClC1=C(Cl)C2(Cl)C(CBr)CC1(Cl)C2(Cl)Cl (stereo unspecified) | inactive: 8.34% |
| O=c1[nH]c2ccccc2n1C1CCN(CCCC(c2ccc(F)cc2)c2ccc(F)cc2)CC1 | inactive |
| CC(=O)[O][Hg][c]1ccccc1 | inactive: 18.6% |
| CC(=O)O[C@H]1C[C@H](O[C@H]2[C@@H](O)C[C@H](O[C@H]3[C@@H](O)C[C@H](OC4CC[C@@]5(C)C(CC[C@@H]6[C@@H]5CC[C@]5(C)[C@@H](C7=CC(=O)OC7)[C@@H](O)C[C@]65O)C4)O[C@@H]3C)O[C@@H]2C)O[C@H](C)[C@H]1O[C@@H]1O[C@H](CO)[C@@H](O)[C@H](O)[C@H]1O (stereo partly specified) | inactive: 9.65% |
| CC(=O)Oc1ccc2c3c1O[C@H]1[C@@H](OC(C)=O)C=C[C@H]4[C@@H](C2)N(C)CC[C@@]341 | inactive |
| CCN(CCO)CCn1c(Cc2ccccc2)nc2c1c(=O)n(C)c(=O)n2C | inactive: 11.6% |
| NCC[C@H](O)C(=O)N[C@@H]1C[C@H](N)[C@@H](O[C@H]2O[C@H](CN)[C@@H](O)[C@H](O)[C@H]2N)[C@H](O[C@@H]2O[C@H](CO)[C@@H](O)[C@H]2O)[C@H]1O | inactive: -0.162% [at 75.8 µM] |
| C=CCOC(Cn1ccnc1)c1ccc(Cl)cc1Cl (stereo unspecified) | inactive: 29.6% |
| CC(=O)Nc1cc([As](=O)(O)O)ccc1O | inactive: 14.8% |
| O=C(O)/C=C/CO | inactive |
| CCCN1CC[C@@H]2c3cc(O)ccc3CC[C@@H]21 | inactive: -1.56% [at 75.8 µM] |
| COc1ccc2c(C(=O)c3ccc(Cl)cc3)c(C)n(CC(=O)O)c2c1 | inactive: 33.6% |
| COC(COC(N)=O)C1=C(N2CC2)C(=O)C(C)=C(N2CC2)C1=O (stereo unspecified) | inactive: 9.9% |
| NC(C(=O)O)c1cc(=O)[nH]o1 (stereo unspecified) | inactive |
| CCC(C(N)=O)N1CCCC1=O (stereo unspecified) | inactive: 19.9% |
| CCCCCCCCCCCC[N+](C)(C)CCOc1ccccc1 | inactive: -3.93% |
| C[N+]1([O-])[C@@H]2CC[C@H]1CC(OC(=O)C(CO)c1ccccc1)C2 (stereo partly specified) | inactive |
| CC(C)(c1ccc(OC[C@@H]2CO2)cc1)c1ccc(OC[C@H]2CO2)cc1 | inactive: -6.3% |
| Nc1ccc(CCN2CCN(c3cccc(C(F)(F)F)c3)CC2)cc1 | inactive |
| COc1cccc2c1cc([N+](=O)[O-])c1c(C(=O)O)cc3c(c12)OCO3 | inactive |
| CC(C)NCC(O)c1ccccc1Cl (stereo unspecified) | inactive: 2.17% |
| CC(=O)NCCc1c[nH]c2ccccc12 | inactive |
| CC[N+](C)(CC)CCOC(=O)C(O)(c1ccccc1)c1ccccc1 | inactive: 6.99% |
